About 16,000 (4.4%) of roughly 360,000 compounds were called active. Inconclusive means that the source gave no clear call. Such entries were picked first, then a sample of the others. Calls come from the whole dose curve; as a rule, active = well fitted inhibition curve with a large enough effect; inconclusive = small, poorly fitted or top-dose-only effect; inactive = no such curve, though single readings can be large or run the other way. Where the call is inconclusive, the potency comes from a doubtful curve fit.
Target: Bromodomain adjacent to zinc finger domain protein 2B (Homo sapiens) (UniProt Q9UIF8)
Assay: qHTS Assay for Inhibitors of BAZ2B; note: nearly all actives have a fitted effect of over 60% in size
Conditions: AlphaScreen BAZ2B-H3K14Ac peptide displacement; activity change, negative = inhibition: at 114 µM (top of the series) unless noted
Method in brief: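 In this displacement format the biotinylated H3(5-23) peptide acetylated at Lys14 serves as ligand at 50 nM, with BAZ2B at 50 nM in PBS pH 7.4 containing 0.01% Tween-20. Donor and acceptor beads are 10 ug/mL final.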
% is set by controls: 0 for no effect and ±100 for the full control effect; potency is the fitted concentration of half-maximal effect; tags give direction and shape of the fitted curve.

UniProt Q9UIF8, sequence (Q9UIF8 whole entry, looked up, the tested form may be a part): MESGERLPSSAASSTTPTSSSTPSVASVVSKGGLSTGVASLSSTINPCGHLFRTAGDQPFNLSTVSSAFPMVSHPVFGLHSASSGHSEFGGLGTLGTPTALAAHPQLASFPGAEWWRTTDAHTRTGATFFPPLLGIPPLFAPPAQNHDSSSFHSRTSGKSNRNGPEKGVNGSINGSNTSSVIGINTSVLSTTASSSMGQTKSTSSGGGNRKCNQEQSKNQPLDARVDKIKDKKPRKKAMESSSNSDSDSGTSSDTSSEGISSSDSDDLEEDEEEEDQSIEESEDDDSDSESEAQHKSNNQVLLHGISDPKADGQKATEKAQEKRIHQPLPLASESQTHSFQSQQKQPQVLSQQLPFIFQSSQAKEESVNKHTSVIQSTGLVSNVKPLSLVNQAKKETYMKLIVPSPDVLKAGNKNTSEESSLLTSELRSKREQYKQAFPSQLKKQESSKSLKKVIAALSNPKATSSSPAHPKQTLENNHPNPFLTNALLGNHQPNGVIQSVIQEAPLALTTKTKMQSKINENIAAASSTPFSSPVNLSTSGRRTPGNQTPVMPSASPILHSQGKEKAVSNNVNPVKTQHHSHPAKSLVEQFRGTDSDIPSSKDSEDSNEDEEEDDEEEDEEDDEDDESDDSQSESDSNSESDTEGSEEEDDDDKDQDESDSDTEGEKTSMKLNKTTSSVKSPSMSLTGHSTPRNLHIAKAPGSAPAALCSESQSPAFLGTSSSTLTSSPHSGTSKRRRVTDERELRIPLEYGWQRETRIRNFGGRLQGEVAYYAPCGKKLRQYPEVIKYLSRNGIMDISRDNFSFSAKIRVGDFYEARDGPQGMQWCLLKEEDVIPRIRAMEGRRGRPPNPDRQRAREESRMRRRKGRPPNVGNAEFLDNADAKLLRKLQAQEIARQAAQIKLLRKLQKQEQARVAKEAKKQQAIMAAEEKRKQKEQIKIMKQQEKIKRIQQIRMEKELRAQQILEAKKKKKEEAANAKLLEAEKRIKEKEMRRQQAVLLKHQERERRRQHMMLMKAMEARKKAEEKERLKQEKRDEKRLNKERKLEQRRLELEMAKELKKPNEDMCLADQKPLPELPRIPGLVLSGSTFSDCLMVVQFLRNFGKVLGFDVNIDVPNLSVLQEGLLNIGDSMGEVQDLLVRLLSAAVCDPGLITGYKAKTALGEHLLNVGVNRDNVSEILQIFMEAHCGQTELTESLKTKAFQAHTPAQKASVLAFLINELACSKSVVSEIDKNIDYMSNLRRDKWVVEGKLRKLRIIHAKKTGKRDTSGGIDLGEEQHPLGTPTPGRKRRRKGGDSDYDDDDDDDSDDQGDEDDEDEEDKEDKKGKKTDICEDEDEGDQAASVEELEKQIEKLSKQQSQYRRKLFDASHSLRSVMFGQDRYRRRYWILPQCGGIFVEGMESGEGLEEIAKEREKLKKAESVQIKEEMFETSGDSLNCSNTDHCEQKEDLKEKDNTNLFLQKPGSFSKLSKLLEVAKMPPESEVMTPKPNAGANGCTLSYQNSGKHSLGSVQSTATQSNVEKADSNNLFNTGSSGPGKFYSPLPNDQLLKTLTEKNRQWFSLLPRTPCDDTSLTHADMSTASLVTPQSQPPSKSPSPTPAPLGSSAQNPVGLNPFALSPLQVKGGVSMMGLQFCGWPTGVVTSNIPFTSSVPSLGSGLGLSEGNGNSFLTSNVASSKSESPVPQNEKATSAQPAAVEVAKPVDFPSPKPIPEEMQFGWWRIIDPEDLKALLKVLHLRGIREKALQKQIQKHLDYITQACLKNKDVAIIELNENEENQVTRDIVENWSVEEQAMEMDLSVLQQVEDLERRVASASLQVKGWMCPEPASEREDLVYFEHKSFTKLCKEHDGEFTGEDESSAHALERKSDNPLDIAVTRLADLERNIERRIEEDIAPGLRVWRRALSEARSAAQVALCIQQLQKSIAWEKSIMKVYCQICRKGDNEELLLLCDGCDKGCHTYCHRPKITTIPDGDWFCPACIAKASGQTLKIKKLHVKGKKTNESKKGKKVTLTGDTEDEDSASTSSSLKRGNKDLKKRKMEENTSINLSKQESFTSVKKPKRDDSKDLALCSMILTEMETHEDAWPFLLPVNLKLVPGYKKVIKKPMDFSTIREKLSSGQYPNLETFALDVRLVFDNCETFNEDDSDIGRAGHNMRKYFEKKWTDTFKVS

Row | SMILES | activity change, negative = inhibition | Potency
1 | O=C(CN1C(=O)c2ccc([N+](=O)[O-])cc2C1=O)NCc1ccco1 | inactive: -22.3% | –
2 | CCc1sc2nc(SCC(=O)Nc3cc(C)on3)n(-c3cccc(OC)c3)c(=O)c2c1C | – | inconclusive: 39.8 µM [inhibitor, partial curve]
3 | CCc1c(C(=O)Nc2ccc(OC)cc2)[nH]c(C)c1C(C)=O | – | inconclusive: 50.1 µM [inhibitor, partial curve]
4 | CCOc1ccc(C2=NC(c3ccncc3)=Nc3ccc(C)cc3N2)cc1OCC | – | inconclusive: 44.7 µM [inhibitor, partial curve]
5 | CCOC(=O)c1[nH]c(C)c(C)c1C | – | inconclusive: 79.4 µM [inhibitor, single point]
6 | COc1cc(C(=O)N/N=C/c2cn(Cc3ccccc3)c3ccccc23)ccc1O | – | inconclusive: 89.1 µM [inhibitor, single point]
7 | COc1cc2c(cc1OC)CN(Cc1cc(OC)c3c(c1)OCO3)CC2 | – | active: 50.1 µM
8 | C=CCn1c(C)csc1=Nc1ccccc1C | – | active: 50.1 µM
9 | CN1C(=O)/C(=C\c2ccccc2)Sc2ccc(C(=O)N3CCN(c4ccccn4)CC3)cc21 | – | inconclusive: 31.6 µM [inhibitor, partial curve]
10 | C/C(=N/O)c1c(O)c(C)c(-c2ccccc2)n(-c2ccccc2)c1=O | – | inconclusive: 89.1 µM [inhibitor, single point]
11 | COCCCNC(=O)c1ccc(CS(=O)(=O)c2cccc(C(F)(F)F)c2)o1 | inactive: -13.3% | –
12 | Cc1cc(N2CCN(C)CC2)ccc1NC(=O)c1ccc(-c2ccc(Cl)cc2)o1 | – | active: 35.5 µM
13 | CCOc1cc(N2CCOCC2)c(OCC)cc1NC(C)C(=O)N1CCN(CC)CC1 (stereo unspecified) | – | active: 10 µM
14 | COC1CCCN(Cc2c(C(=O)N3CCN(C4CCCCC4)CC3)nc3ccccn23)C1 (stereo unspecified) | – | inconclusive: 5.01 µM [inhibitor, partial curve]
15 | N#C/C(=C\c1ccco1)C(=O)NCc1ccccc1 | inactive: -14.3% | –
16 | O=C(CSc1cc(Cl)ccc1Cl)Nc1ccc(N2CCOCC2)cc1 | – | inconclusive: 79.4 µM [inhibitor, partial curve]
17 | O=[N+]([O-])C(=C1SCCS1)C(=C(Cl)Cl)N1CCCCC1 | – | active: 7.94 µM
18 | Cc1ccc(N2CCn3c2nc2c3c(=O)n(C/C=C/c3ccccc3)c(=O)n2C)cc1C | – | inconclusive: 39.8 µM [inhibitor, partial curve]
19 | COc1ccccc1N1CCN(C(c2cc3cc(C)ccc3[nH]c2=O)c2nnnn2C2CCCC2)CC1 (stereo unspecified) | inactive: -38.2% | –
20 | CCC1(c2ccc(Cl)cc2)NC(=O)N(CC(=O)NC2CCCCCC2)C1=O (stereo unspecified) | inactive: -4.23% | –
21 | CC1CC(C)CN(CC(=O)Nc2ccc3c(c2)OCCO3)C1 (stereo unspecified) | – | active: 79.4 µM
22 | CCn1c2ccccc2c2nnc(N3CCN(c4cccc(Cl)c4)CC3)nc21 | – | inconclusive: 50.1 µM [inhibitor, partial curve]
23 | COc1ccc(-c2[nH]ncc2-c2nc(C)cs2)c(O)c1 | – | inconclusive: 79.4 µM [inhibitor, partial curve]

Row | SMILES | activity change, negative = inhibition | Potency
24 | Cc1ccc2cc(CN(C(=O)c3ccco3)c3cccc(C)c3C)c(=O)[nH]c2c1 | inactive: -3.32% | –
25 | FC(F)(F)c1cc(N2CCOCC2)nc(-c2ccccc2)n1 | inactive: 7.73% | –
26 | CCOC(=O)c1c(C)[nH]c(C)c1C(=O)COC(=O)COc1ccc(Cl)c(C)c1 | – | inconclusive: 89.1 µM [inhibitor, single point]
27 | COC(=O)C1=COC(C)C2CN3CCc4c([nH]c5ccccc45)C3CC12 (stereo unspecified) | – | inconclusive: 89.1 µM [inhibitor, single point]
28 | Cc1[nH]n(-c2ccccc2)c(=O)c1/C=N\NC(=O)C1COc2ccccc2O1 (stereo unspecified) | – | active: 70.8 µM
29 | Cc1csc2nc(COC(=O)CNC(=O)c3ccc(F)cc3)cc(=O)n12 | inactive: -0.423% | –
30 | COc1cc(OC)c2c(-c3ccccc3)cc(=O)oc2c1C(CC(=O)N1CCN(c2ccccc2)CC1)c1ccc(N(C)C)cc1 (stereo unspecified) | – | active: 8.91 µM
31 | COc1cc(=O)[nH]c(SCC(=O)Nc2ccc3ccccc3c2)n1 | inactive: -13.3% | –
32 | CSc1ccc(/C=C2\C(=N)N3N=C(CC(=O)N4CCCCC4)SC3=NC2=O)cc1 | – | inconclusive: 89.1 µM [inhibitor, single point]
33 | COc1ccccc1NCC(=O)N/N=C(\C)c1cccs1 | – | inconclusive: 25.1 µM [inhibitor, full curve]
34 | Cc1cc(OCC(=O)NC(Cc2ccc(Cl)cc2)C(=O)O)c2c(C)c(C)c(=O)oc2c1 (stereo unspecified) | inactive: 1.97% | –
35 | Cc1ccccc1-n1c(-c2ccc(Cl)cc2)cnc1SCC(=O)NC1CCS(=O)(=O)C1 (stereo unspecified) | – | active: 50.1 µM
36 | Cc1cc(NC(=O)C2C3C=CC(C3)C2C(=O)O)no1 (stereo unspecified) | – | inconclusive: 100 µM [inhibitor, single point]
37 | O=C(CN1C(=O)S/C(=C\c2cccs2)C1=O)Nc1ccc(O)cc1C(=O)O | – | inconclusive: 39.8 µM [inhibitor, partial curve]
38 | COc1cccc(/C=C2\SC(=S)N(CCCC(=O)N(CCO)c3ccccc3)C2=O)c1 | – | inconclusive: 10 µM [inhibitor, full curve]
39 | CCc1nn(C(CC)C(=O)NCc2cccc(OC)c2)c(=O)c2cc3occc3n12 (stereo unspecified) | inactive: -10% | –
40 | CC(C)CCSc1nc2c(c(=O)[nH]c(=O)n2C)n1CCc1ccccc1 | – | inconclusive: 89.1 µM [inhibitor, single point]
41 | COc1ccc(OC)c(NC(=O)c2ccc(CSc3nnc(C)s3)cc2)c1 | – | inconclusive: 79.4 µM [inhibitor, single point]
42 | CCOC(=O)C1=C(OCc2ccc(Cl)cc2)C2C=C(C)C=CC2N=C1 (stereo unspecified) | – | inconclusive: 89.1 µM [inhibitor, single point]
43 | COc1ccccc1NC(=O)c1cc2cc(Br)ccc2oc1=N | inactive: -22.4% | –
44 | CCC(=O)Nc1sc(Cc2ccccc2)c(C)c1C(N)=O | – | inconclusive: 56.2 µM [inhibitor, partial curve]
45 | CC(=O)Nc1ccc(N/C=C/C(=O)c2ccco2)cc1 | – | inconclusive: 79.4 µM [inhibitor, single point]
46 | CC(C)c1ccc(C(=O)NNC(=O)c2n[nH]c(=O)c3ccccc23)cc1 | inactive: 7.87% | –
